Measured values from PubChem BioAssay AID1508623 (National Center for Advancing Translational Sciences (NCATS), 2021).
Hit rate of the full screen: of about 48,000 compounds, about 450 (0.94%) were called active. Another 19% or so got no clear call; they are omitted. Calls come from the whole dose curve; as a rule, active = well fitted inhibition curve with a large enough effect; inconclusive = small, poorly fitted or top-dose-only effect; inactive = no such curve, though single readings can be large or run the other way. Some of the results follow.

test: Primary qHTS for Identification of Small Molecule Inhibitors of Huntingtin Promoter Activity; conditions: HEK293 HTT promoter firefly luciferase reporter (activity 0% = vehicle and -100% = no light), 24 h; series mostly up to 57.5 µM; activity change, negative = inhibition: at the top concentration; note: nearly all actives have a fitted effect of over 50% in size
Text: Assay Provider: Russell L. Margolis M.D.
Department Neurology, Johns Hopkins University School of Medicine, Baltimore, MD
Huntington's Disease (HD) is a neurodegenerative disorder caused by a CAG repeat expansion in exon 1 of huntingtin (HTT). While there are currently no disease-modifying treatments for HD, recent efforts have focused on development of nucleotide-based therapeutics to lower HTT expression. As an alternative to siRNA or oligonucleotide methods, we hypothesized that suppression of HTT expression might be accomplished by small molecules that either (1) directly decrease HTT expression by suppressing HTT promoter activity or (2) indirectly decrease HTT expression by increasing the promoter activity of HTT-AS, the gene antisense to HTT that appears to inhibit expression of HTT.
We developed and employed a high throughput screen for modifiers of HTT and HTT-AS promoter activity using luminescent reporter HEK293 cells; of the 52,041 compounds tested, we identified 898 replicable hits. We used a rigorous stepwise approach to assess compound toxicity and the capacity of the compounds to specifically lower huntingtin protein in 5 different cell lines, including HEK293 cells, HD lymphoblastoid cells, mouse primary neurons, HD iPSCs differentiated into cortical-like neurons, and HD hESCs. We found no compounds which were able to lower huntingtin without lowering cell viability in all assays, though the potential efficacy of a few compounds at non-toxic doses could not be excluded.
SEQUENCE No. (1, 2, 3, etc.); […] (e.g., Cells, Incubation, Reagent, etc.); VALUE and DESCRIPTION.
1; Reagent; 4 uL; 2,500 Hek293 luciferase reporter cells per wells
3; Compound; 23 nL; Control inhibitor / compound library
5; Reagent; 2.5 uL; Firefly Luc reagent; Dual-Glo Luciferase Reporter Assay System (Promega)
6; Time; 10 min; room temperature incubation
7; Detection; Luminescence; FLuc
NOTES (numbers refer to sequence above)
1; High-throughput screening, measuring luminescence from a Hek293 luciferase reporter, was performed in 1,536 well white-walled tissue-culture treated plates. 2,500 cells were plated in 4 µL of Opti-MEM per well using a Multidrop Combi Reagent Dispenser (ThermoFisher).
2; Assay plates were cultured for 24 hours.
3; Control inhibitor (PTC124; final concentration of 50 uM) and compound library (at final concentrations of 460 nM - 57.5 uM) were added to the assay plate using the Kalypsis Pintool Robotic System equipped with 1536 pinheads.
4; Cells were then incubated for 24 hours at 37 degrees C prior to luminescence measurements.
5; In all cases, luminescence was measured using the Dual-Glo Luciferase Reporter Assay System (Promega) following the manufacturer's instructions.
6; Room temperature incubation.
7; Luminescence signal was obtained using the PerkinElmer ViewLux plate reader. Results were normalized to vehicle control (0% activity) and zero RLU (-100% activity).

Activity change, negative = inhibition, inactive:
CCNC(=O)Nc1ccc2ncc(Nc3ccc(C)cc3)nc2n1 11.7%
COc1cc2c(cc1NC(=O)C(C)Oc1ccc(Cl)cc1Cl)oc1ccccc12 (configuration not stated) -3.32%
COc1cc(-c2nnc(SCC(=O)N(C)C3CCCCC3)o2)cc(OC)c1OC -19.9%
Cc1ccc(CCNC(=O)CCCn2nc(C)c3c(C)n(-c4ccc(C)cc4)nc3c2=O)cc1 -24.1%
Cc1ccc(OCC(=O)OCc2cc(=O)n3nc(C4CCCCC4)sc3n2)cc1 -18.5%
CCN(c1ncnc2c1c(-c1ccccc1)cn2-c1ccccc1)C1CCCCC1 -4.32%
COc1ccc(N(C(=O)c2ccccc2C)S(=O)(=O)c2ccc3c(c2)n(C)c(=O)n3C)cc1 2.52%
COc1ccc(OC)c(CCNC(=O)c2sc3nc4n(c(=O)c3c2C)CCCC4)c1 0.731%
CCOc1ccccc1NS(=O)(=O)c1c(C(=O)OC)sc2cccc(F)c12 0%
CCNc1c(NC(=O)c2ccccc2OCC)c(=O)oc2ccccc12 -8.59%
CCOC(=O)C1=C(CNCc2ccccc2)NC(=O)NC1c1ccc(C)cc1 (configuration not stated) -13.7%
Cc1ccc(N2C(=O)[C@@H]3CSC(c4ccc(C(F)(F)F)cc4)N3C2=O)cc1 (some centres not stated) -3.84%
Cc1ccc(S(=O)(=O)N2CCCc3cc(NC(=O)c4ccc(C(F)(F)F)cc4)ccc32)cc1 -34.3%
O=C(Nc1ccc(F)cc1)c1cccc(N2CCCS2(=O)=O)c1 9.68%
Cc1cc(=O)n(C(C)C(=O)NCc2ccccc2Cl)c2c1c(C)nn2-c1ccccc1 (configuration not stated) -6.06%
Cc1ccc(C(C)C)c(OCC(=O)Nc2c(C(=O)c3ccc(F)cc3)oc3ccccc23)c1 14.2%
Cc1cc(O)c(C(c2ccccc2Cl)N2CCCCC2)c(=O)n1Cc1ccco1 (configuration not stated) -3.49%
CCc1ccc(C2N3CC4(C)CN2CC(c2ccccc2)(C3)C4=O)cc1 (configuration not stated) -12.2%
CCOC(=O)N1CCN([N+]([O-])=NOc2ccc([N+](=O)[O-])cc2C#N)CC1 -22.4%
CCn1cc(C(=O)NCc2ccccc2)c(=O)c2cc(S(=O)(=O)N3CCOCC3)ccc21 -14.5%
Cc1ccc(/C=C/c2onc(C)c2S(=O)(=O)N2CCC(C(=O)NCc3ccc(Cl)cc3)CC2)cc1 -5.5%
CC(NC(=O)c1ccc(N2Cc3ccccc3Oc3ncccc32)s1)c1ccccc1 (configuration not stated) -18.6%
CC(C)CCCC(C)N (configuration not stated) 16.9%
CCOC(=O)C(C)NC(=O)c1cc2c(=O)[nH]c3ccc(C)cc3c2s1 (configuration not stated) -13.8%
Cc1c(Cl)cccc1NC(=O)C(=O)NCCc1csc(-c2cccc(F)c2)n1 -12.8%
COc1ccc(NC(=O)c2ccc(-c3cccc(Cl)c3C)o2)cc1 -0.479%
COc1ccc(-c2nc(CSc3nc4ncccc4[nH]3)c(C)o2)cc1OC -22.7%
CC(NC(=O)Cc1ccc(NC(=O)N2CCCCc3ccccc32)cc1)c1ccccc1 (configuration not stated) -26.3%
CCOc1cccc2sc(NC(=O)c3ccc(S(=O)(=O)N4CCc5ccccc54)cc3)nc12 -21.9%
CCc1cccc(C)c1NC(=O)C(CC)Sc1nc2ccncc2[nH]1 (configuration not stated) -21.5%
CCCN1CCN(CC2=C(C(=O)OCC)C(c3cccc(OC)c3OC)NC(=O)N2)CC1 (configuration not stated) 3.95%
CCCCc1nn2c(=O)cc(COC(=O)c3ccc(NC(=O)c4cccc(OC)c4)cc3)nc2s1 -23%
CSc1ncc(C(=O)NCc2ccccc2Cl)c(C(F)(F)F)n1 -7.35%
Cc1ccc(NC(=O)N2CCc3c(sc4c3CCCC4)C2c2ccccc2)cc1F (configuration not stated) -19.4%
CCOC(=O)CSc1nc2cc3c(cc2c(=O)n1CCCCCC(=O)NCc1ccc2c(c1)OCO2)OCO3 -3.01%
Cc1cc(C)cc(NC(=O)N2CCN(C)c3ncccc32)c1 -3.83%
Cc1ccc2c(CC(=O)Nc3ccc(S(=O)(=O)Nc4nc(C)cc(C)n4)cc3)coc2c1 -29.7%
COc1cc(C2Nc3ccccc3-c3nnc(SCc4ccc(Cl)cc4)nc3O2)ccc1OCC(=O)O (configuration not stated) -3.49% [at 11.5 µM]
CCOc1ccc(CNC(=O)CN2C(=O)CSc3ccc(S(=O)(=O)N4CCOCC4)cc32)cc1OC -13%
CN(C)CCOC(c1ccccc1)c1ccc(Br)cc1 (configuration not stated) -10.7%
Cn1c(=O)cc(OCC(=O)N2CCN(c3ccccc3F)CC2)c2ccccc21 -4.03%
Cc1cc2oc(C(=O)N(Cc3ccc(N(C)C)cc3)CC3CCCO3)c(C)c2cc1C (configuration not stated) -18.6%
O=C(CCCCn1c(=O)c2ccccc2n(Cc2ccccc2F)c1=O)NCc1ccc2c(c1)OCO2 -10.8%
O=C(NCc1ccc(Cl)cc1)C1(c2cccs2)CCOCC1 -15.2%
COc1ccc(-c2noc(-c3cc(C(C)C)[nH]n3)n2)cc1 46.3%
CCN1CCc2c(sc(NC(=O)CSc3ccccc3)c2-c2nc3ccccc3s2)C1 -27.5%
COC(=O)C1=C(C)NC(C)=C(C(=O)OCCCN2CCC(c3ccccc3)(c3ccccc3)CC2)C1c1cccc([N+](=O)[O-])c1 (configuration not stated) -7.23%
CC(=O)c1cccc(Nc2cc(C)nc3nc(-c4ccccc4C)nn23)c1 0.627%
Cc1ccc(CNC(=O)C2CCCN(c3nc4c(C)cc(C)cc4s3)C2)cc1 (configuration not stated) 14.7%
COC(=O)c1ccccc1NC(=O)CCn1nc(C)c2c(C)n(-c3ccccc3)nc2c1=O -3.29%
O=C(Nc1ccc(NC(=O)c2cccs2)cc1)c1ccc(Cl)cc1 -0.584%
O=C(COc1ccccc1)NCCc1csc(-c2ccc(F)cc2)n1 -19.1%
CC1(c2ccccc2)OC(C(=O)O)=CC1=O (configuration not stated) 2.36%
CN(C(=O)Cn1c(=O)n(Cc2ccc(C(=O)NCc3ccc4c(c3)OCO4)cc2)c(=O)c2ccccc21)c1ccccc1 -21.9%
Cc1cccc(C)c1NC(=O)CN(CC(=O)O)CC(=O)O 18.2%
COc1ccc(CNC(=O)CCc2nc3cccnc3n2Cc2ccc(OC)cc2)cc1 1.82%
CCCCOc1ccc(Cn2c(=O)oc3ccccc32)cc1 14.5%
COC(=O)c1ccc(NC(=O)c2nn(C)c3c2COc2ccccc2-3)cc1 11.6%
CCOc1ccc(OCC(=O)NCCS(=O)(=O)N2CCN(c3ccc(OC)cc3)CC2)cc1 -15.1%
Cc1ccc(NC(=O)Cn2c(=O)n(CCc3ccccc3)c(=O)c3sc4ccccc4c32)cc1C 5.68%
COc1ccccc1CNS(=O)(=O)c1cc(-c2cc(C)no2)ccc1C -31.9%
O=C(NCc1cccc(Cl)c1)c1oc(=O)c2ccccc2c1-c1ccccc1 -11.1%
